Test results reported in PubChem BioAssay AID652104 (National Center for Advancing Translational Sciences (NCATS), 2013).
Out of some 410,000 compounds screened, about 7,200 (1.8%) were called active. Inconclusive means that the source gave no clear call. Such entries were picked first, then a sample of the others. Calls follow the shape of the dose curve; as a rule, active = well fitted activation curve with a large enough effect; inconclusive = small, poorly fitted or top-dose-only effect, or another doubt; inactive = no such curve, though single readings can be large or run the other way. No potency is given beside an inconclusive call; the fits are too rough.

Assay: qHTS of TDP-43 Inhibitors; also: nearly all actives have a fitted effect of over 50% in size; as to growth rescue (activation): % of control where 0% means no effect
Settings: TDP-43 expressing yeast growth rescue, BacTiter-Glo, 24 h; growth rescue (activation): at 46.1 µM (top of the series) unless noted
Procedure, shortened: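 Cell-based yeast growth screen: TDP-43 expression induced in galactose, inoculum OD600=0.02 after raffinose pregrowth to mid-log. Read-out BacTiter-Glo luminescence at 24 hr, 30 deg C; inhibition of toxicity seen as signal increase.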
Potency is read from the fitted curve at half-maximal effect; tags tell the direction and shape of the fitted curve.

| Compound | Potency | growth rescue (activation) |
| --- | --- | --- |
| CC(=O)Nc1ccc(S(=O)(=O)N2CCN(CC3CC4C=CC3C4)CC2)cc1 (stereo not drawn) | inactive |  |
| COc1ccccc1N=NC1=C(O)CC(C)(C)CC1=O | inconclusive [activator, partial curve] |  |
| Cc1nc(Cl)sc1C(=O)Nc1ccc(C(F)(F)F)cc1 | inconclusive [activator, partial curve] |  |
| CC(C)(O)c1[nH]c2ccc(C#N)cc2c1C(C)(C)O | inconclusive [activator, partial curve, poor fit] |  |
| CSc1ccc(CCNC(=O)c2ccc(-n3c(C)cc4c3CCCC4)cc2)cc1 | inactive |  |
| CC1CCCCN1S(=O)(=O)c1ccc(C(=O)Nc2nnc(C3CC3)o2)cc1 (stereo not drawn) | inconclusive [activator, single point] |  |
| CNc1nn(-c2cccc(Cl)c2)nc1N | inconclusive [activator, single point] |  |
| O=C1CS/C(=C\[N+](=O)[O-])N1c1ccccc1 | inconclusive [activator, partial curve, poor fit] |  |
| COc1ccc(Nc2ncc3c(n2)CCN(Cc2ccc(Br)s2)C3)c(OC)c1 |  | inactive: 18.7% [at 9.22 µM] |
| COc1ccc(/C=C/c2nc(C#N)c(N3CCC(C)CC3)o2)cc1OC | inconclusive [activator, single point] |  |
| CC12c3ccccc3C(c3ccccc31)C1C(=O)N(c3cccnc3)C(=O)C12 (stereo not drawn) | inconclusive [activator, single point] |  |
| COc1ccc(OC)c(NC(=O)COC(=O)c2n[nH]c3ccccc23)c1 | inconclusive [activator, partial curve] |  |
| NC(c1csc(Nc2cc(NCCCO)ncn2)n1)c1ccccc1Cl (stereo not drawn) | inconclusive [activator, full curve, poor fit] |  |
| O=C(Nc1nc(-c2ccccn2)cs1)c1cc(Cl)ccc1[N+](=O)[O-] | inconclusive [activator, single point] |  |
| Cc1ccc(-c2cc3nc(-c4ccccc4)cc(N4CCC5(CC4)OCCO5)n3n2)cc1 | inconclusive [activator, single point] |  |
| COc1ccccc1CNC(=O)c1sc2nc3n(c(=O)c2c1C)CCC3 | inactive |  |
| CCOC(=O)C1CCCN(c2oc(-c3ccc(F)cc3)nc2C#N)C1 (stereo not drawn) | inconclusive [activator, partial curve, poor fit] |  |
| CCC(C)NC(=O)CSc1ccc(S(=O)(=O)N(C)C2CCCCC2)cn1 (stereo not drawn) | inconclusive [activator, partial curve] |  |
| COc1ccc(CCNC(=O)c2c(C)nn(-c3ccccc3)c2Cl)cc1 | inconclusive [activator, single point] |  |
| Fc1cccc(-c2cc3nc4c(c(NCc5ccco5)n3n2)CCCC4)c1 | inconclusive [activator, single point] |  |
| CCOC(=O)C1=C(c2ccccc2)Nc2ncnn2C1c1ccc(C(=O)O)cc1 (stereo not drawn) | inactive |  |
| CCCNCC(O)COc1ccccc1C(=O)CCc1ccccc1 (stereo not drawn) | inconclusive [activator, partial curve, poor fit] |  |

| Compound | Potency | growth rescue (activation) |
| --- | --- | --- |
| CCN(Cc1ccccc1)C(=O)C1CCN(S(=O)(=O)c2c(C)noc2/C=C/c2ccc(C)cc2)CC1 | inactive |  |
| CCOC(=O)C1(CC2CCCCO2)CCN(C(=O)Nc2ccccc2SC)CC1 (stereo not drawn) | inconclusive [activator, single point] |  |
| C=CCn1c(CCc2ccc(OC(C)C)cc2)n[nH]c1=S | inconclusive [activator, partial curve] |  |
| CCOC(=O)c1ccc(NC(=O)CCOc2ccc(OC)cc2)cc1 | inconclusive [activator, partial curve] |  |
| COc1ccc(C(=O)NC2CC(C)(C)Cc3c2cnn3-c2ccccc2C)c(OC)c1OC (stereo not drawn) | inconclusive [activator, partial curve] |  |
| COc1ccc(-c2csc(C(O)c3cccc(Cl)c3)n2)cn1 (stereo not drawn) | active: 25.1 µM |  |
| O=C1C(Cl)=C(N2CCOCC2)C(=O)N1c1cccc(C(F)(F)F)c1 | inconclusive [activator, single point] |  |
| Cc1ccc(NC(/C=C/N(C)C)=C/C(=O)C(F)(F)F)c(C)c1 |  | inactive: -9.3% [at 1.82 µM] |
| O=[N+]([O-])c1ccc(/C=N/N=C/c2ccc([N+](=O)[O-])o2)o1 | inconclusive [activator, partial curve] |  |
| O=S1(=O)CCOC[C@H](CC2CCCCC2)N1Cc1ccccc1 | inconclusive [activator, full curve, poor fit] |  |
| Cc1ccc(C)c(N2CCN(C(=O)c3ccc4[nH]c(C)c(C)c4c3)CC2)c1 | inactive |  |
| Cc1ccccc1OCc1nc2ccccc2n1C | active: 17.8 µM |  |
| COc1ccc(-c2nc(CS(=O)CC(=O)NCCC3=CCCCC3)c(C)o2)cc1 (stereo not drawn) | inconclusive [activator, single point] |  |
| Oc1cccc(C(Nc2nccs2)c2ccc3cccnc3c2O)c1 (stereo not drawn) | inconclusive [activator, single point] |  |
| CC(C)(C)c1cc(NC(=O)COc2ccc(Br)cc2)n(-c2ccccc2)n1 | active: 20 µM |  |
| Cc1ccc(N2CCN(C(=S)Nc3ccccc3)CC2)cc1 | inconclusive [activator, full curve, poor fit] |  |
| COc1cc(/C=C/C2=NNC(=O)CC2)cc(OC)c1OC | inactive |  |
| CCn1c(SCc2ccccc2F)nc(=O)c2c(C(=O)OC)cc(C3CC3)nc21 | inconclusive [activator, partial curve] |  |
| Cc1ncc(CO)c(CO)c1OCC(O)CN1CCN(c2ccc(F)cc2)CC1 (stereo not drawn) | inactive |  |
| Cc1c(O)ccc(C(=O)COc2ccccc2F)c1O | inconclusive [activator, full curve, poor fit] |  |
| Cc1cccc(C)c1OCc1n[nH]c(=S)o1 | inconclusive [activator, partial curve] |  |
